Some of the results follow. Rule as the data show it: active = 25% or less and inactive = the rest. Most values come without repeats; read them as rough.
What was measured:
[1] = tested on: Salmonella enterica serovar Typhimurium SL1344; experiment: bacterial growth OD600 after 18 h in MHB with 0.5 µg/mL polymyxin B; higher = more bacterial growth (less inhibition); settings: 25 µM; polymyxin B 0.5 µg/mL; system: broth
Experimental: (§1)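 Secondary screen of the 553 primary hits at 25 µM. (i) S. Typhimurium SL1344 grown in Mueller-Hinton broth with 0.5 µg/mL polymyxin B, OD600 read after 18 h. (ii) SAFIRE assay: RAW 264.7 macrophages infected with S. Typhimurium sifB::gfp (MOI 30); compound added 2 h post-infection; cells fixed at 18 h; GFP-positive pixel fraction per macrophage imaged by confocal microscopy and expressed as % of DMSO control.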

[2] = tested on: Salmonella enterica serovar Typhimurium SL1344; experiment: intramacrophage bacterial GFP load (SAFIRE), percent of DMSO control (% of DMSO); higher = more intracellular bacteria (less inhibition); settings: 25 µM; system: infected RAW 264.7 macrophages
Experimental: as §1
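For bacterial growth OD600 after 18 h in MHB with 0.5 µg/mL polymyxin B in this document: polymyxin B level opens the outer membrane while sparing the inner membrane, with novobiocin wells as reference growth inhibitor.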
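For intramacrophage bacterial GFP load (SAFIRE), percent of DMSO control in this document: compounds tested were the hits of an earlier 50 µM broth growth screen of a drug-like diversity library run with polymyxin B.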

| Compound | bacterial growth OD600 [1] | intramacrophage bacterial GFP load [2] |
| --- | --- | --- |
| COc1ccc(-c2ccccc2NC(=O)C2CCCN2CCCC(F)(F)F)cc1 (configuration not stated) | -0.005 | inactive: 26 |
| O=C(C1CCCC1)N1CCCC(CCc2ccccc2F)C1 (configuration not stated) | 0.003 | inactive: 44.1 |
| O=C(CCCc1cccs1)N1CCOc2ccc(C(O)C(c3ccccc3)c3ccccc3)cc2C1 (configuration not stated) | 0.008 | inactive: 60.7 |
| CCOC(=O)C1(C/C=C/c2ccccc2)CCCN(Cc2ccncc2)C1 (configuration not stated) | 0.067 | active: 17.9 |
| CCS(=O)(=O)c1ncc(CN(C)Cc2ccc(C)cc2)n1CCc1ccccc1 | -0.003 | inactive: 53.7 |
| Cc1ccc(OCc2cc(C(=O)N(C)CCC(C)C)no2)cc1C | 0 | inactive: 92.7 |
| COc1cccc(NC(=O)CCC2CCN(S(=O)(=O)c3cc(C)cs3)CC2)c1 | -0.002 | inactive: 119 |
| Cc1cc(CN(C)c2ccc(-c3nc(-c4ccccc4F)no3)cn2)on1 | 0.576 | inactive: 90.7 |
| CCN(CC)c1ncccc1CNC(=O)c1cccs1 | 0.581 | inactive: 89.4 |
| CC(Cc1cccnc1)NC(=O)c1cc(COc2cccc3cnccc23)on1 (configuration not stated) | 0.563 | inactive: 156 |
| Cc1nc(CC(=O)N(Cc2ccncc2)Cc2cccc(OCCc3ccc(F)cc3)c2)cs1 | 0.001 | inactive: 37.4 |
| COC(=O)c1ccc(-c2nc(CN(C)C3CCCc4ccccc43)c(C)o2)cc1 (configuration not stated) | 0.003 | inactive: 73.6 |
| COc1ccccc1C(=O)C1CCCN(C(=O)c2csc(-c3cccs3)n2)C1 (configuration not stated) | 0.003 | inactive: 78.4 |
| CCOC(=O)C1(Cc2ccccc2Cl)CCN(C(=O)c2ccsc2)CC1 | 0.005 | inactive: 42.8 |
| O=C(c1coc(COc2ccccc2F)n1)N1CCc2c(Cl)cccc2C1 | -0.002 | inactive: 217 |
| O=C(c1ccccc1)C1CCCN(C(=O)CC2(c3cccc(F)c3)CC(=O)N(C3CCCC3)C2=O)C1 (configuration not stated) | 0.005 | inactive: 52.1 |

| Compound | bacterial growth OD600 [1] | intramacrophage bacterial GFP load [2] |
| --- | --- | --- |
| Cc1ccc2c(c1)CN(CC(=O)NCC1(c3ccccc3)CCOCC1)CC(c1ccsc1)O2 (configuration not stated) | -0.004 | inactive: 113 |
| C=C(C)CN(CC)C(=O)c1cc(COc2cc(C)c(Cl)c(C)c2)on1 | -0.013 | inactive: 107 |
| CC(C)c1cc(CN2CCC(n3nccc3NC(=O)c3ccc4c(c3)OCO4)CC2)n[nH]1 | 0.705 | inactive: 159 |
| O=C(c1cnn2cccnc12)N(Cc1ccncc1)Cc1cccc(OCCc2ccc(F)cc2)c1 | -0.001 | inactive: 49.9 |
| COc1cc(CN2Cc3cc(C)ccc3OC(c3ccsc3)C2)ccc1O (configuration not stated) | -0.002 | active: 0.0123 |
| Cc1ccc(C(=O)N(Cc2ccc(OCc3ccc4c(c3)OCO4)cc2)CC2CCCO2)s1 (configuration not stated) | 0.003 | inactive: 115 |
| COc1cccc(OC)c1-c1cnnc(NCc2cccc(C(F)(F)F)c2)n1 | -0.008 | inactive: 109 |
| O=C(/C=C/c1ccco1)N1CCC2(CCCN(CCc3ccccc3)C2)C1 (configuration not stated) | 0.01 | inactive: 83.7 |
| Cc1ccc2occ(CN3CCOc4ccc(C(O)CCc5ccccc5)cc4C3)c(=O)c2c1 (configuration not stated) | -0.009 | inactive: 75.5 |
| Cc1ccn(CC(=O)N2CCCC(C(=O)c3ccc(-c4ccccc4)cc3)C2)n1 (configuration not stated) | 0.002 | inactive: 75.4 |
| CN(CCc1ccccc1)C1(C(=O)N[C@H]2CC[C@H](O)CC2)Cc2ccccc2C1 | 0.006 | inactive: 31.5 |
| COCCCNc1nc2nonc2nc1NCc1ccc(Cl)s1 | 0.002 | inactive: 150 |
| Cc1csc(CN(C)C(=O)c2csc3nc(-c4cccc(Cl)c4)cn23)n1 | 0.001 | inactive: 150 |
| c1cc(C2CCCCC2)ccc1-c1cnnc(N2CCOCC2)n1 | 0.003 | inactive: 85.4 |
| COc1ccc(-c2cnnc(NCCc3ccccc3F)n2)c(OC)c1 | -0.002 | inactive: 82.2 |

— the supplement of paper PMC12889115
